70 molecules from the supplement of paper PMC10600219 can be followed below.

Each structure is given as a SMILES string. Where a name gives a salt, the structure may show the parent alone. The full ranking holds about 2,800 compounds; the median of “cell viability relative to vehicle” is about 0.98, and the lowest 2% start at about 0.45. The list shows a part of the results.

The assay has as its system NCI-H2228 alectinib-DTP. Nature of the assay: cell viability relative to vehicle (fraction of vehicle); NCI-H2228 is an ALK-positive lung cancer line and DTP means drug-tolerant persister; higher = less growth inhibition. The note with it: 100 nM; treatment time 6 days. In outline: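 Parental NCI-H2228 cells and drug-tolerant persister cells (made with 1000 nM of a targeted drug for 13 days) were seeded in 384-well plates. The next day, the 3114-agent TargetMol anti-cancer compound library was added at 100 nM, with DMSO as vehicle. After 6 days, ATP was read with the CellTiter-Glo 3D Cell Viability Assay. Each value is cell viability relative to vehicle-treated cells.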
`COc1ccc2c(c1)/C(=C/c1cnc[nH]1)C(=O)N2`: the cell viability was determined as 1.01.
The value for `COc1ccc(C[C@H]2NC[C@H](O)[C@H]2OC(C)=O)cc1` [Anisomycin] was 0.661; that for `COc1ccc2c(c1)[nH]c1c(C)nccc12` [Harmine] was 0.801; that for `CN(C)NC(=O)CCC(=O)O` [Daminozide] was 0.957.
Then `NCCc1c[nH]c2ccc(O)cc12` [Serotonin hydrochloride], with 0.98.
Then `C/C=C(\C)C(=O)N[C@@H](c1ccccc1)[C@@H](O)C(=O)O[C@H]1C[C@@]2(O)[C@@H](OC(=O)c3ccccc3)[C@@H]3[C@]4(OC(C)=O)CO[C@@H]4C[C@H](O)[C@@]3(C)C(=O)[C@H](OC(C)=O)C(=C1C)C2(C)C` [Cephalomannine], with 0.508; and `C[C@@H]1CN(Cc2ccc(F)cc2)CCN1C(=O)COc1ccc(Cl)cc1NC(N)=O`, with 1.07.
In turn, `COc1cc([C@@H]2c3cc4c(cc3[C@H](O)[C@H]3COC(=O)[C@H]23)OCO4)cc(OC)c1OC` [Podophyllotoxin] showed a cell viability of 0.634.
The value for `CC(C)=CCC[C@](C)(O)[C@H]1CC[C@]2(C)[C@@H]1[C@H](O)C[C@@H]1[C@@]3(C)CC[C@H](O)C(C)(C)[C@@H]3[C@@H](O[C@@H]3O[C@H](CO)[C@@H](O)[C@H](O)[C@H]3O)C[C@]12C` [Ginsenoside Rh1] was 0.928; that for `C[C@@H]1CCC=C2C(=O)C[C@H]3OOC(C)(C)[C@H]3[C@]21C` [Nardosinone] was 0.941; that for `C#C[C@]1(O)C=C[C@H]2[C@@H]3CCC4=CC(=O)CC[C@@H]4[C@H]3CC[C@@]21CC` [Gestodene] was 0.945.
Then `CC(C)(C)NCC(O)c1ccccc1Cl` (stereo not given) [Tulobuterol hydrochloride], with 0.856.
Then `Cc1cccc([C@H](C)c2c[nH]cn2)c1C` [Dexmedetomidine], with 0.893; and `Cc1cccc([C@H](C)c2c[nH]cn2)c1C` [Dexmedetomidine HCl], with 0.944.
In the case of `C[C@H]1C(=O)O[C@@H]2CCN3CC=C(COC(=O)[C@](C)(O)[C@]1(C)O)[C@H]23` [Monocrotaline], the cell viability came out at 0.941.
The molecule `CO[C@]12C[C@@H](COC(=O)c3cncc(Br)c3)CN(C)[C@@H]1Cc1cn(C)c3cccc2c13` [Nicergoline] gave a cell viability of 0.935.
The value for `CC(=O)OC12COC1CC(O)C1(C)C(=O)C(O)C3=C(C)C(O)CC(O)(C(OC(=O)c4ccccc4)C21)C3(C)C` (stereo not given) [10-Deacetylbaccatin III] was 1.01; that for `C[N+]12CCC(CC1)C(OC(=O)C(O)(c1ccccc1)c1ccccc1)C2` (stereo not given) [Clidinium bromide] was 0.958; that for `CC1=C[C@H]2[C@@]3(O)[C@H](C)[C@@H](O)[C@]4(O)[C@H]([C@@H]3C=C(CO)C[C@]2(O)C1=O)C4(C)C` [Phorbol] was 0.999.
The value for `O=P1(NCCCl)OCCCN1CCCl` (stereo not given) [Ifosfamide] was 1.15; that for `CC(C)c1c(CN(C)C(C)Cc2ccccc2)n(C)n(-c2ccccc2)c1=O` (stereo not given) [Famprofazone] was 1.09.
Then `N#C/C=C1/C=C[C@@H](O)[C@H](O)[C@H]1O[C@@H]1O[C@H](CO)[C@@H](O)[C@H](O)[C@H]1O` [Griffonin], with 0.984; and `CN1C(=O)COc2c(C(=O)NC3CN4CCC3CC4)cc(Cl)cc21` (stereo not given) [Azasetron hydrochloride], with 0.929; and `Cc1cccc(C)c1NC1=NCCCS1` [Xylazine hydrochloride], with 0.914.
For `O=C1CCC[C@@H]2[C@H]3CCCN4CCC[C@@H](CN12)[C@@H]34` [(+)-Matrine], the cell viability worked out at 0.939.
Then `Clc1ccc(C(OCCN2CCCCC2)c2ccccc2)cc1` (stereo not given) [Cloperastine hydrochloride], with 1; and `Clc1ccccc1C(c1ccccc1)(c1ccccc1)n1cccn1`, with 0.859.
The value for `O=C(N[C@H]1CN2CCC1CC2)c1cc2cccc(Cl)c2s1` [EVP-6124 hydrochloride] was 0.906.
Then `CC(=O)O[C@H]1[C@H]2O[C@]23[C@@H]2CC[C@@H]4C[C@@H](O)CC[C@]4(C)[C@H]2CC[C@]3(C)[C@H]1c1ccc(=O)oc1` [Cinobufagin], with 0.142; and `NCCc1c[nH]c2ccccc12` [Tryptamine], with 1.12.
For `Cc1cc(SCc2sc(-c3ccc(C(F)(F)F)c(F)c3)nc2C)ccc1OCC(=O)O`, the cell viability was 1.09.
Then `O=C(O)C1C2CCC(O2)C1C(=O)O` (stereo not given) [Sodium Demethylcantharidate], with 1.11; and `CC(C)(C)[C@]1(O)CC2OC(=O)CC23C(=O)OC2OC(=O)[C@H](O)C231` (stereo not given in full) [Bilobalide], with 1; and `CCCC(C)(C)c1ccc2c(c1)OC(C)(C)[C@@H]1CC=C(C)C[C@@H]21`, with 0.862.
As for `CC1=C[C@]23C(=O)[C@@H](C=C(CO)[C@@H](O)[C@]2(O)[C@H]1O)[C@H]1[C@@H](C[C@H]3C)C1(C)C` [Ingenol], the cell viability turned out to be 1.17.
The value for `CCC1(c2ccc(N)cc2)CCC(=O)NC1=O` (stereo not given) [Aminoglutethimide] was 1.03; that for `CCN(C)C(=O)Oc1cccc([C@H](C)N(C)C)c1` [Rivastigmine tartrate] was 0.935.
Then `CCN(C)C(=O)Oc1cccc([C@H](C)N(C)C)c1` [Rivastigmine], with 1.02; and `CN(C)C(=O)Oc1cc(OC(=O)N(C)C)cc(C(O)CNC(C)(C)C)c1` (stereo not given) [Bambuterol hydrochloride], with 0.843; and `NCCc1ccc(O)cc1` [Tyramine], with 0.998.
Then `CCn1cc(C(=O)O)c(=O)c2cc3c(cc21)OCO3` [Oxolinic acid], with 1; and `C[C@]12CC[C@H](O)C[C@@H]1CC[C@@H]1[C@@H]2CC[C@]2(C)C(=O)CC[C@@H]12` [Epiandrosterone], with 0.814.
`C[N+]1(C)[C@@H]2C[C@@H](OC(=O)[C@H](CO)c3ccccc3)C[C@H]1[C@@H]1O[C@@H]12` [Methscopolamine] registered a cell viability of 0.998.
Then `O=C1CCC[C@@H]2[C@H]3CCCN4CCC[C@H](CN12)[C@@H]34` [Sophoridine], with 0.886; and `O=C(/C=C/c1ccccc1)OC[C@H]1O[C@@H](O[C@@H]2OC=C[C@H]3[C@H](O)[C@@H]4O[C@]4(CO)[C@@H]23)[C@H](O)[C@@H](O)[C@@H]1O` [Picroside I], with 1.06.
The value for `C=C1CC[C@H]2[C@@H](/C=C(\C)C(=O)[C@@]3(O)C[C@H](C)[C@H](O)[C@@H]3[C@@H]1O)C2(C)C` [Lathyrol] was 1.08; that for `Cc1c(Cl)cccc1S(=O)(=O)Nc1nc(CC(=O)N2CCN(C)CC2)cs1` was 0.928; that for `COc1ccc2c(c[n+](C)c3c4cc5c(cc4ccc23)OCO5)c1OC` [Chelerythrine] was 1.03.
For `COc1ccc2c(c[n+](C)c3c4cc5c(cc4ccc23)OCO5)c1OC` [Chelerythrine chloride], the cell viability was determined as 1.04.
Then `O=c1[nH]c2ccccc2n1C1CCN(Cc2ccc(-c3[nH]c4cc5ncnc5cc4nc3-c3ccccc3)cc2)CC1` [AKT inhibitor VIII], with 0.865; and `COc1cc(C2OCC3C(c4cc(OC)c(O[C@@H]5O[C@H](CO)[C@@H](O)[C@H](O)[C@H]5O)c(OC)c4)OCC23)cc(OC)c1O[C@H]1O[C@@H](CO)[C@H](O)[C@@H](O)[C@@H]1O` (stereo not given in full) [Eleutheroside E], with 0.943.
For `C[C@H](Nc1ncnc2[nH]cnc12)c1nc2ccc(F)cc2c(=O)n1-c1ccccc1` [Acalisib], the cell viability was found to be 0.875.
The value for `COc1ccc(CCN2CCC(Nc3nc4ccccc4n3Cc3ccc(F)cc3)CC2)cc1` [Astemizole] was 1.04; that for `CC(=O)O[C@H]1C[C@H](O[C@H]2[C@@H](O)C[C@H](O[C@H]3[C@@H](O)C[C@H](O[C@H]4CC[C@@]5(C)[C@H](CC[C@@H]6[C@@H]5C[C@@H](O)[C@]5(C)[C@@H](C7=CC(=O)OC7)CC[C@]65O)C4)O[C@@H]3C)O[C@@H]2C)O[C@H](C)[C@H]1O[C@@H]1O[C@H](CO)[C@@H](O)[C@H](O)[C@H]1O` [Lanatoside C] was 0.49; that for `Cc1c([C@H](C)[C@@H]2NC[C@@H](C)C[C@H]2O)ccc2c1C[C@H]1[C@H]2CC=C2C[C@@H](O)CC[C@@]21C` [Veratramine] was 0.894.
The value for `CC(=O)Nc1ccc(OC[C@](C)(O)C(=O)Nc2ccc([N+](=O)[O-])c(C(F)(F)F)c2)cc1` [Andarine] was 0.917; that for `C[C@](O)(COc1ccc(C#N)cc1)C(=O)Nc1ccc(C#N)c(C(F)(F)F)c1` [Ostarine] was 0.904; that for `C=CCCCCCCCCC(=O)O[C@H]1CC[C@H]2[C@@H]3CCC4=CC(=O)C=C[C@]4(C)[C@H]3CC[C@]12C` [Parenabol] was 1.04.
For `CNCC(=O)c1ccc(O)c(O)c1` [Adrenalone hydrochloride], the cell viability was 0.895.
Then `CC(C)[C@H](N)C(=O)N1CCC[C@H]1B(O)O` [Talabostat mesylate], with 1.05; and `C=C(C)[C@H]1Cc2c(ccc3c2O[C@@H]2COc4cc(OC)c(OC)cc4[C@@H]2C3=O)O1` [Rotenone], with 0.851.
Then `COC(=O)C1=CCCN(C)C1` [Arecoline HBr], with 1.13.
Turning to `C[C@]12CC[C@H]3[C@@H](CC[C@@]45O[C@@H]4C(O)=C(C#N)C[C@]35C)[C@@H]1CC[C@@H]2O` [Trilostane], the cell viability was determined as 0.896.
The value for `N#Cc1c(Oc2cccc(OS(=O)(=O)CCCC(F)(F)F)c2)cccc1C(F)(F)F` was 0.899; that for `C[N+](C)(C)CCCCCCCCCC[N+](C)(C)C` [Decamethonium bromide] was 0.953.
Regarding `C[C@]12CC[C@H](O)C[C@H]1CC[C@@H]1[C@@H]2CC[C@]2(C)[C@@](O)(c3ccoc3)CC[C@]12O` [Rostafuroxin], the cell viability was determined as 0.988.
Then `COc1ccc(/C=C/C=C2C(=O)NC(=O)NC2=O)cc1`, with 0.972.
Then `CC(CCc1ccccc1)NC(C)C(O)c1ccc(O)cc1` (stereo not given) [Nylidrin hydrochloride], with 1.02; and `O=C(O)CNC(=O)c1c(O)c2ccccc2n(Cc2ccccc2)c1=O`, with 0.865; and `COc1cc2c3c(c1OC)-c1ccccc1C[C@H]3N(C)CC2` [Nuciferine], with 0.958.
